# Laboratory results reported in article PMC4336329 (PLoS ONE, 2015).
# Screen size: about 310,000 compounds; about 2,200 (0.71%) showed an effect of 50% or more. The effect is printed as a negative number. The list shows a part of the results.
# Biological target: human ether-à-go-go-related gene (hERG) potassium channel (human, UniProt Q12809)
# Experiment: primary screen, population patch clamp on CHO cells stably expressing hERG
# Sequence of human ether-à-go-go-related gene (hERG) potassium channel (Q12809 whole entry, looked up): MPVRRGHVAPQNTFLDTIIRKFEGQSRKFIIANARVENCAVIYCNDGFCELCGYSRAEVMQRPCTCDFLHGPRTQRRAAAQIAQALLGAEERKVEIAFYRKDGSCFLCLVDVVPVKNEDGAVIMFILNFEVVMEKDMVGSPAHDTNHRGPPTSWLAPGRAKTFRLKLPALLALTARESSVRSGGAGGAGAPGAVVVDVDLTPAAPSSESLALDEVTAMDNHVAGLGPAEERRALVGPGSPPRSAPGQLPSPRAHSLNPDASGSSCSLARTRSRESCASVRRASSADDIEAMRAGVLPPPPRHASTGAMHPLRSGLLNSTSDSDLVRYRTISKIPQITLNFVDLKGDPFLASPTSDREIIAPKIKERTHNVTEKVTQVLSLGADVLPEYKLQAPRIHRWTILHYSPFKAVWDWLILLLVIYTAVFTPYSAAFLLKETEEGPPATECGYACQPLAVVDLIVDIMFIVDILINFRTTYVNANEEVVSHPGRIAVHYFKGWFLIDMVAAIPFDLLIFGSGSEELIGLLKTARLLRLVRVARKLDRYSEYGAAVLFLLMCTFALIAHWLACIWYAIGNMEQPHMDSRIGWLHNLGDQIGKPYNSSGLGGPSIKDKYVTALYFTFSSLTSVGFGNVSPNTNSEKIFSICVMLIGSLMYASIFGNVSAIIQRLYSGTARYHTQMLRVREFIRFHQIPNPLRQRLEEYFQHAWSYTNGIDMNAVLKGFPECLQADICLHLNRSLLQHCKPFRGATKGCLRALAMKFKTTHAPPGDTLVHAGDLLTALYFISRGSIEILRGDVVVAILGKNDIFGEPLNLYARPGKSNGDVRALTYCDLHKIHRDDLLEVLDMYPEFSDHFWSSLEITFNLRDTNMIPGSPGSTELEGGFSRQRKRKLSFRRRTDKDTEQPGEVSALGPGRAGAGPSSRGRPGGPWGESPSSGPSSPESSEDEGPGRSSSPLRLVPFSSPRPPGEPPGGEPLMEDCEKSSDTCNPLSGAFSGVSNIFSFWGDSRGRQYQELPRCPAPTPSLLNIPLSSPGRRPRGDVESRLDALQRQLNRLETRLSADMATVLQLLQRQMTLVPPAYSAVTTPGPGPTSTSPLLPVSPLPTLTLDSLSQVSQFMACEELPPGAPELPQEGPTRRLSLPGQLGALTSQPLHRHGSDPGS
row,Structure (SMILES),"hERG current change (%, negative = inhibition) at 1uM [%]"
1,Clc1ccc(-n2nnc(-c3cccnc3)n2)cc1Cl,-32.7
2,O=C(COC(=O)CCCOc1ccc(Cl)cc1Cl)NCc1ccc(F)cc1,7.81
3,COC(=O)Cc1ccc(NC(=O)c2ccccc2Br)cc1,13.6
4,O=C(Nc1sc2c(c1C(=O)O)CCCCC2)c1cccs1,23.2
5,CCOC(=O)/C(C#N)=C/c1cn(CCOc2ccccc2)c2ccccc12,12.8
6,CN1CCN(C(=O)c2cc3sc4ccccc4c3s2)CC1,12.7
7,Cc1csc(NC(=O)c2ccc3ccccc3n2)n1,10.2
8,COc1cc(Cl)c(S(=O)(=O)n2cnc(C)c2)cc1Cl,0.732
9,CC1(C)NC(=O)N(CC(=O)NNC(=O)c2ccccc2F)C1=O,12
10,COc1cccc(NC(=O)CCC(=O)NCc2ccco2)c1,14.9
11,O=S(=O)(c1ccc(F)cc1)N1CCC2(CC1)OCCO2,12
12,O=C(CCSCc1ccccc1F)NCc1cccnc1,16
13,COc1ccc(S(=O)(=O)CCC(=O)N2CCN(c3ccc(C(C)=O)cc3)CC2)cc1,-3.87
14,COc1cccc(NC(=O)CSc2nc3c(c(-c4ccco4)c2C#N)CCCC3)c1,15.4
15,Cc1cc(S(=O)(=O)N2CCC3(CC2)OCCO3)c(C)cc1Cl,8.92
16,O=C(CN1C(=O)CC(c2ccco2)Sc2ccccc21)Nc1ccccc1F (stereo not drawn),-1.2
17,O=C(c1ccc2c(c1)OCO2)C1CCCN(Cc2ccccn2)C1 (stereo not drawn),-13
18,CN(C)CCN(C(=O)c1ccc(N2C(=O)CCC2=O)cc1)c1nc2cc3c(cc2s1)OCCO3.Cl,8.44
19,Cc1cc(NC(c2cccnc2)c2ccc3cccnc3c2O)no1 (stereo not drawn),8.74
20,Nc1c(C(=O)NCc2ccco2)sc2nc(N3CCOCC3)c3c(c12)CCCC3,4.34
21,CC(=O)c1cccc(NC(=O)c2cc(-c3ccc(F)cc3)on2)c1,-4.73
22,Brc1cccc(-c2nnc(-c3ccccc3)o2)c1,11.8
23,O=C(O)c1cccc(Oc2ccccc2[N+](=O)[O-])c1,11.9

row,Structure (SMILES),"hERG current change (%, negative = inhibition) at 1uM [%]"
1,CCOc1ccc(C(=O)NCC(=O)NCC(c2ccccc2OC)N2CCCC2)cc1 (stereo not drawn),-2.46
2,COCCCn1c(Cc2csc(Nc3ccccc3)n2)nnc1SCC(N)=O,16.9
3,Cc1ccc2[nH]c(=O)c(CN(CCO)C(=O)N(C)C)cc2c1,5.65
4,CCC(C)NC(=O)C1CCC(CNS(=O)(=O)c2ccccc2)CC1 (stereo not drawn),15.5
5,CCC(C#CCN1CCOCC1)(CC)OCCC#N,2.58
6,CC(=O)c1c(C)[nH]c(C(=O)Nc2ccc(C)c(C)c2)c1C,18.4
7,CCN(CC)CCn1c(-c2ccccc2)nc(=S)c2c1CC(C)(C)OC2,7.89
8,O=C(c1sc2ccccc2c1Cl)N1CCN(c2ncccn2)CC1,6.43
9,Cc1cccc(Cn2c(=O)oc3ccc(C)cc32)c1,12.2
10,CCCn1c(N)c(CC)c(=O)[nH]c1=O,11.1
11,Cl.O=C1CC(N2CCN(Cc3ccccc3)CC2)C(=O)N1c1ccc2c(c1)OCCO2 (stereo not drawn),7.3
12,Cc1noc(NC(=O)c2ccc(Cl)c(Cl)c2)c1Cl,12.9
13,Cc1ccc(-n2[nH]c(C)c(C=Nc3ccc(C)cn3)c2=O)cc1,7.61
14,C[N+]1(CCC(C(N)=O)(c2ccccc2)c2ccccc2)CCCCC1.[Br-],15.7
15,O=C(O)c1cc2cc(Cl)cc(Cl)c2oc1=O,8.8
16,O=c1c(C=NCc2cccnc2)c(C(F)(F)F)[nH]n1-c1nc2ccccc2s1,10.8
17,O=C(c1ccc2c(c1)OCO2)N(Cc1cccs1)C1(C(=O)NC2CCCCC2)CCCCC1,4.07
18,O=C(CSCc1ccccc1F)NCc1ccccc1,13.4
19,CCN(CC(=O)Nc1ccc(NC(C)=O)cc1)C(=O)/C=C/c1ccc2c(c1)OCO2,19.4
20,O=c1[nH]c(CN(CCO)CCO)nc2c1C1(CCCCC1)Cc1ccccc1-2,4.67
21,C=CCn1c(CCc2ccccc2)nnc1SCC(N)=O,6.51
22,COc1cccc(C(=O)OCC(=O)NC(=O)NC2CCCC2)c1O,13.2
